Data published in PMC12820563.
The other results are listed elsewhere or left out. The list includes weakly bound sequences.

Biological target: T1, MBP-FoxP3dN (UniProt Q99JB6)
T1 sequence: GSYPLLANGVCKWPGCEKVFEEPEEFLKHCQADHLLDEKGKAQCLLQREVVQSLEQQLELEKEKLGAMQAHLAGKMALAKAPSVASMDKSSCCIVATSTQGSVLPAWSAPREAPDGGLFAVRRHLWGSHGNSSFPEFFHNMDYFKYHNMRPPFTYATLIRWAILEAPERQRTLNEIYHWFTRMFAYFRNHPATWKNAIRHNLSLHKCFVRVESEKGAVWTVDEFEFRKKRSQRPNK
Assay: PD-seq (MBP pull-down with sequencing)
Conditions: 20 mM Tris-HCl pH 7.5, 100 mM NaCl, 1.5 mM MgCl2, 0.4 uM protein, 0.1 uM dsDNA library, 30 min, room temperature, amylose pull-down; high values mean tight binding; double strand, one strand shown

Sequence	binding signal (RPM ratio (pull-down/input))
GATGATTGTTCTCCCAGCTGATGAATTTTTGCGATCGAGTAAACAAATTTTCCTAATCTTTCTGTTCAAGCGCCATCTAC	0.78
GATGATTGTTCTCCCAGCTGATGAATTTAAATGCTCGAGTAAACAAATTTTCCTAATCTTTCTGTTCAAGCGCCATCTAC	0.945
GATGATTGTTCTCCCAGCTGATGAATTGCCTCTATCGAGTAAACAAATTTTCCTAATCTTTCTGTTCAAGCGCCATCTAC	1.41
GATGATTGTTCTCCCAGCTGATGAATTGGTTCCTTCGAGTAAACAAATTTTCCTAATCTTTCTGTTCAAGCGCCATCTAC	0.358
GATGATTGTTCTCCCAGCTGATGAATTGGCAGAATCGAGTAAACAAATTTTCCTAATCTTTCTGTTCAAGCGCCATCTAC	0.222
GATGATTGTTCTCCCAGCTGATGAATTTGCATCCTCGAGTAAACAAATTTTCCTAATCTTTCTGTTCAAGCGCCATCTAC	7.55
GATGATTGTTCTCCCAGCTGATGAATTCTAATTGTCGAGTAAACAAATTTTCCTAATCTTTCTGTTCAAGCGCCATCTAC	1.95
GATGATTGTTCTCCCAGCTGATGAATTATGACCGTCGAGTAAACAAATTTTCCTAATCTTTCTGTTCAAGCGCCATCTAC	0.522
GATGATTGTTCTCCCAGCTGATGAATTATCCCTCTCGAGTAAACAAATTTTCCTAATCTTTCTGTTCAAGCGCCATCTAC	0.319
GATGATTGTTCTCCCAGCTGATGAATTTCGGGTCTCGAGTAAACAAATTTTCCTAATCTTTCTGTTCAAGCGCCATCTAC	0.637
GATGATTGTTCTCCCAGCTGATGAATTTATGCCCTCGAGTAAACAAATTTTCCTAATCTTTCTGTTCAAGCGCCATCTAC	1.25
GATGATTGTTCTCCCAGCTGATGAATTCGTGGTCTCGAGTAAACAAATTTTCCTAATCTTTCTGTTCAAGCGCCATCTAC	1.24
GATGATTGTTCTCCCAGCTGATGAATTCATTAAGTCGAGTAAACAAATTTTCCTAATCTTTCTGTTCAAGCGCCATCTAC	0.249
GATGATTGTTCTCCCAGCTGATGAATTGTCACATTCGAGTAAACAAATTTTCCTAATCTTTCTGTTCAAGCGCCATCTAC	0.685
GATGATTGTTCTCCCAGCTGATGAATTCCTAGACTCGAGTAAACAAATTTTCCTAATCTTTCTGTTCAAGCGCCATCTAC	0.209
GATGATTGTTCTCCCAGCTGATGAATTTTATCTCTCGAGTAAACAAATTTTCCTAATCTTTCTGTTCAAGCGCCATCTAC	0.547
GATGATTGTTCTCCCAGCTGATGAATTAATGGGTTCGAGTAAACAAATTTTCCTAATCTTTCTGTTCAAGCGCCATCTAC	0.49
GATGATTGTTCTCCCAGCTGATGAATTTGTCAGGTCGAGTAAACAAATTTTCCTAATCTTTCTGTTCAAGCGCCATCTAC	2.36
GATGATTGTTCTCCCAGCTGATGAATTGTTCTTATCGAGTAAACAAATTTTCCTAATCTTTCTGTTCAAGCGCCATCTAC	0.457
GATGATTGTTCTCCCAGCTGATGAATTATTCTAGTCGAGTAAACAAATTTTCCTAATCTTTCTGTTCAAGCGCCATCTAC	0.256
GATGATTGTTCTCCCAGCTGATGAATTAGCGACATCGAGTAAACAAATTTTCCTAATCTTTCTGTTCAAGCGCCATCTAC	0.71

Sequence	binding signal (RPM ratio (pull-down/input))
GATGATTGTTCTCCCAGCTGATGAATTGAGTCTGTCGAGTAAACAAATTTTCCTAATCTTTCTGTTCAAGCGCCATCTAC	0.453
GATGATTGTTCTCCCAGCTGATGAATTGCGCCACTCGAGTAAACAAATTTTCCTAATCTTTCTGTTCAAGCGCCATCTAC	7.19
GATGATTGTTCTCCCAGCTGATGAATTACTCTGATCGAGTAAACAAATTTTCCTAATCTTTCTGTTCAAGCGCCATCTAC	0.271
GATGATTGTTCTCCCAGCTGATGAATTTAGTGCGTCGAGTAAACAAATTTTCCTAATCTTTCTGTTCAAGCGCCATCTAC	1.28
GATGATTGTTCTCCCAGCTGATGAATTCCTTTACTCGAGTAAACAAATTTTCCTAATCTTTCTGTTCAAGCGCCATCTAC	0.576
GATGATTGTTCTCCCAGCTGATGAATTGTCCGGTTCGAGTAAACAAATTTTCCTAATCTTTCTGTTCAAGCGCCATCTAC	0.283
GATGATTGTTCTCCCAGCTGATGAATTCACTCCCTCGAGTAAACAAATTTTCCTAATCTTTCTGTTCAAGCGCCATCTAC	0.315
GATGATTGTTCTCCCAGCTGATGAATTCCAAAATTCGAGTAAACAAATTTTCCTAATCTTTCTGTTCAAGCGCCATCTAC	0.213
GATGATTGTTCTCCCAGCTGATGAATTGCAGTGTTCGAGTAAACAAATTTTCCTAATCTTTCTGTTCAAGCGCCATCTAC	1.23
GATGATTGTTCTCCCAGCTGATGAATTCTTACGGTCGAGTAAACAAATTTTCCTAATCTTTCTGTTCAAGCGCCATCTAC	0.26
GATGATTGTTCTCCCAGCTGATGAATTACGGAGATCGAGTAAACAAATTTTCCTAATCTTTCTGTTCAAGCGCCATCTAC	0.285
GATGATTGTTCTCCCAGCTGATGAATTGATACTATCGAGTAAACAAATTTTCCTAATCTTTCTGTTCAAGCGCCATCTAC	1.24
GATGATTGTTCTCCCAGCTGATGAATTGGACCTTTCGAGTAAACAAATTTTCCTAATCTTTCTGTTCAAGCGCCATCTAC	0.275
GATGATTGTTCTCCCAGCTGATGAATTAGAGATATCGAGTAAACAAATTTTCCTAATCTTTCTGTTCAAGCGCCATCTAC	0.353
GATGATTGTTCTCCCAGCTGATGAATTGGGTAAATCGAGTAAACAAATTTTCCTAATCTTTCTGTTCAAGCGCCATCTAC	0.297
GATGATTGTTCTCCCAGCTGATGAATTATAATCATCGAGTAAACAAATTTTCCTAATCTTTCTGTTCAAGCGCCATCTAC	0.744
GATGATTGTTCTCCCAGCTGATGAATTACACTCCTCGAGTAAACAAATTTTCCTAATCTTTCTGTTCAAGCGCCATCTAC	0.571
GATGATTGTTCTCCCAGCTGATGAATTTCTAGGGTCGAGTAAACAAATTTTCCTAATCTTTCTGTTCAAGCGCCATCTAC	0.194
GATGATTGTTCTCCCAGCTGATGAATTCGGATAGTCGAGTAAACAAATTTTCCTAATCTTTCTGTTCAAGCGCCATCTAC	0.48
GATGATTGTTCTCCCAGCTGATGAATTCTGTGATTCGAGTAAACAAATTTTCCTAATCTTTCTGTTCAAGCGCCATCTAC	3.34
GATGATTGTTCTCCCAGCTGATGAATTTAATCCTTCGAGTAAACAAATTTTCCTAATCTTTCTGTTCAAGCGCCATCTAC	0.322

Sequence	binding signal (RPM ratio (pull-down/input))
GATGATTGTTCTCCCAGCTGATGAATTCTCACTATCGAGTAAACAAATTTTCCTAATCTTTCTGTTCAAGCGCCATCTAC	0.378
GATGATTGTTCTCCCAGCTGATGAATTTTAAGCATCGAGTAAACAAATTTTCCTAATCTTTCTGTTCAAGCGCCATCTAC	0.881
GATGATTGTTCTCCCAGCTGATGAATTGATACACTCGAGTAAACAAATTTTCCTAATCTTTCTGTTCAAGCGCCATCTAC	1.99
GATGATTGTTCTCCCAGCTGATGAATTCACTAGGTCGAGTAAACAAATTTTCCTAATCTTTCTGTTCAAGCGCCATCTAC	0.236
GATGATTGTTCTCCCAGCTGATGAATTGCCTCCATCGAGTAAACAAATTTTCCTAATCTTTCTGTTCAAGCGCCATCTAC	1.28
GATGATTGTTCTCCCAGCTGATGAATTACCTGCTTCGAGTAAACAAATTTTCCTAATCTTTCTGTTCAAGCGCCATCTAC	0.326
GATGATTGTTCTCCCAGCTGATGAATTGGGGATCTCGAGTAAACAAATTTTCCTAATCTTTCTGTTCAAGCGCCATCTAC	0.366
GATGATTGTTCTCCCAGCTGATGAATTAGACTCTTCGAGTAAACAAATTTTCCTAATCTTTCTGTTCAAGCGCCATCTAC	0.49
GATGATTGTTCTCCCAGCTGATGAATTTTGCATGTCGAGTAAACAAATTTTCCTAATCTTTCTGTTCAAGCGCCATCTAC	6.69
GATGATTGTTCTCCCAGCTGATGAATTTACCTTCTCGAGTAAACAAATTTTCCTAATCTTTCTGTTCAAGCGCCATCTAC	0.534
GATGATTGTTCTCCCAGCTGATGAATTAAACGCGTCGAGTAAACAAATTTTCCTAATCTTTCTGTTCAAGCGCCATCTAC	0.609
GATGATTGTTCTCCCAGCTGATGAATTGACCGTGTCGAGTAAACAAATTTTCCTAATCTTTCTGTTCAAGCGCCATCTAC	0.368
GATGATTGTTCTCCCAGCTGATGAATTAAAATTGTCGAGTAAACAAATTTTCCTAATCTTTCTGTTCAAGCGCCATCTAC	0.481
GATGATTGTTCTCCCAGCTGATGAATTTGGTACCTCGAGTAAACAAATTTTCCTAATCTTTCTGTTCAAGCGCCATCTAC	0.89
GATGATTGTTCTCCCAGCTGATGAATTAGCAAACTCGAGTAAACAAATTTTCCTAATCTTTCTGTTCAAGCGCCATCTAC	0.415
GATGATTGTTCTCCCAGCTGATGAATTGCGGAAATCGAGTAAACAAATTTTCCTAATCTTTCTGTTCAAGCGCCATCTAC	0.688
GATGATTGTTCTCCCAGCTGATGAATTGTCATGATCGAGTAAACAAATTTTCCTAATCTTTCTGTTCAAGCGCCATCTAC	0.567
GATGATTGTTCTCCCAGCTGATGAATTACGATTCTCGAGTAAACAAATTTTCCTAATCTTTCTGTTCAAGCGCCATCTAC	0.89
GATGATTGTTCTCCCAGCTGATGAATTCAGTTTCTCGAGTAAACAAATTTTCCTAATCTTTCTGTTCAAGCGCCATCTAC	1.41
GATGATTGTTCTCCCAGCTGATGAATTGTCTAAATCGAGTAAACAAATTTTCCTAATCTTTCTGTTCAAGCGCCATCTAC	0.383
GATGATTGTTCTCCCAGCTGATGAATTGGACCGATCGAGTAAACAAATTTTCCTAATCTTTCTGTTCAAGCGCCATCTAC	0.184
